# According to PMC4336329 (PLoS ONE, 2015):
# In all, about 310,000 compounds went through this assay and about 14,000 (4.5%) showed an effect of 50% or more. The effect is printed as a negative number. Some of the results follow.
# Target: human ether-à-go-go-related gene (hERG) potassium channel (human, UniProt Q12809)
# Assay: primary screen, population patch clamp on CHO cells stably expressing hERG
# 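Also: peak tail current of the secondary pulse compared with the same well before compound.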
# human ether-à-go-go-related gene (hERG) potassium channel, sequence (Q12809 whole entry, looked up): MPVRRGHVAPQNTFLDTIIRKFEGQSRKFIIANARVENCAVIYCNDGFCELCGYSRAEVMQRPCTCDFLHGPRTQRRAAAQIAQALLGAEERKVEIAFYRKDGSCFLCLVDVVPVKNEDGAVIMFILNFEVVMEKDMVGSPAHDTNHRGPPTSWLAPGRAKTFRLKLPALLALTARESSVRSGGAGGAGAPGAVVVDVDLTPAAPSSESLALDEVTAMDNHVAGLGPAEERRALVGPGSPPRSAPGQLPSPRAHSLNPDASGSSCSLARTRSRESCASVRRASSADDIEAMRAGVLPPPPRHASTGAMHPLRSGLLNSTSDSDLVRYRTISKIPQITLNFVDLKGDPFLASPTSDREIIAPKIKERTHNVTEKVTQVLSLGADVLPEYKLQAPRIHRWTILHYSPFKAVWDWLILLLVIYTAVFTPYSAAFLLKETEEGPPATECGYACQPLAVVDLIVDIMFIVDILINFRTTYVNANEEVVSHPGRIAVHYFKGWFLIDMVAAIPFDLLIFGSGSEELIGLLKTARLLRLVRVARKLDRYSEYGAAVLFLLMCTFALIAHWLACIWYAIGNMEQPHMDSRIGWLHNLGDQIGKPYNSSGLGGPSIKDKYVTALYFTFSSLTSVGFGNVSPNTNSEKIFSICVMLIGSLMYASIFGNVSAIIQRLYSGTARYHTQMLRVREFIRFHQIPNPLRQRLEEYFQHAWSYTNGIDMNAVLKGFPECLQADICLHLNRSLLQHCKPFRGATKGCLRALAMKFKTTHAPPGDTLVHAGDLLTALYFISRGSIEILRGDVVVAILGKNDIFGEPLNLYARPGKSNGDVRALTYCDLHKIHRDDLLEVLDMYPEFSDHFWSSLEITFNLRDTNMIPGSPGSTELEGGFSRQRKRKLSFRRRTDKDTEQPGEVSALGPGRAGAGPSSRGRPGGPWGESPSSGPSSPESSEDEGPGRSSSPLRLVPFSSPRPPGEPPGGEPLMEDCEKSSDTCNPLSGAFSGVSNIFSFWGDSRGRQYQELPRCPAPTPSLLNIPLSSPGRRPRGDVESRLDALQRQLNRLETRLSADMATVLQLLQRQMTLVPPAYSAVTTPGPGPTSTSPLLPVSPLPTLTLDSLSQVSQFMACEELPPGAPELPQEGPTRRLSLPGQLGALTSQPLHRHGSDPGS
row,SMILES,"hERG current change (%, negative = inhibition) at 10uM"
1,COCCn1c(NCc2ccco2)nc2c1c(=O)[nH]c(=O)n2C,15.3%
2,O=C(NCC1CCCO1)C(=O)NCC(c1ccco1)N1CCN(c2ccccc2F)CC1 (stereo not shown),-2.95%
3,CC1(C)CC2CC(C)(CN2S(=O)(=O)c2ccc(N)cc2)C1 (stereo not shown),-17.2%
4,Cc1cc(C)n2nc(SCCOc3ccccc3F)nc2n1,-22.7%
5,O=C(O[C@H]1[C@H](Cc2ccccc2)NS(=O)(=O)[C@H]2C[C@@H]3C=C[C@]12O3)c1ccc([N+](=O)[O-])cc1,0.543%
6,COc1ccc(-c2noc(CN(C)CCC3CCCCO3)n2)cc1 (stereo not shown),5.66%
7,O=C(O)Cc1c[nH]c2ccccc12,16.1%
8,COCCOC(=O)C1=C(C)NC(=O)NC1c1c(Cl)nc2c(C)cccn2c1=O (stereo not shown),19.4%
9,Cc1ccc2c(CC(=O)Nc3nc(C)cs3)coc2c1,1.85%
10,O=C(Nc1ccc(Cl)cc1)NC1CCCCNC1=O (stereo not shown),-5.3%
11,COc1ccc2nc(NC(=O)c3ccccc3-c3ccccc3C(=O)O)sc2c1,21.9%
12,O=C(c1cccc(COc2cccc3ccccc23)c1)N1CCCC1,-4.59%
13,COc1cccc(C(=O)NCc2ccc(-c3nc4ccccc4s3)cc2)c1,21.7%
14,COc1ccc(C2/C(=C(/O)c3ccc4c(c3)CC(C)O4)C(=O)C(=O)N2CCCn2ccnc2)cc1 (stereo not shown),15.5%
15,O=c1c2ccccc2cnn1Cc1n[nH]c(=S)n1-c1ccc(F)c(Cl)c1,14.4%
16,CCN(C(=O)CSc1nnc(-c2ccc(OC(F)F)cc2)n1N)C1CCS(=O)(=O)C1 (stereo not shown),-43.3%
17,O=C(NCc1ccco1)C1CCC(N2C(=O)c3ccccc3C2=O)CC1 (stereo not shown),1.59%
18,CSc1ccc(C(=O)C2CCCN(C(=O)CN3CCOC3=O)C2)cc1 (stereo not shown),4.06%
19,COc1ccc(-n2nc3c(c2NC(=O)c2ccco2)CS(=O)(=O)C3)cc1,-9.71%
20,O=C(CC1C(=O)NCCN1C(=O)Nc1ccccc1)Nc1cc(Cl)cc(Cl)c1 (stereo not shown),7.5%
21,Cn1cnnc1SCC(=O)NCc1ccccc1,18.8%
22,C=C(CC)C(=O)c1ccc(OCC(=O)O)c(Cl)c1Cl,15.4%

row,SMILES,"hERG current change (%, negative = inhibition) at 10uM"
1,CNC(=O)Cn1nc(-c2ccc(C)c(S(=O)(=O)N(C)C)c2)c2ccccc2c1=O,-9.45%
2,Cc1nc(-c2cn[nH]c2-c2ccc(O)cc2O)cs1,16%
3,CCOC(=O)c1cnc2c(CC)cccc2c1NCCN1CCOCC1,-44.4%
4,Cc1nn(-c2cc(N3CCCCC3)ccc2[N+](=O)[O-])c(=O)c2ccccc12,-15.1%
5,CSc1ccccc1OCc1cc(C(=O)NCCN2CCCC(O)C2)no1 (stereo not shown),-15.1%
6,COc1cccc(NC(=O)CN(C)CC(=O)Nc2ccc(Cl)cc2[N+](=O)[O-])c1,-17.5%
7,Brc1cccc(Cn2c(-c3cncs3)nc3ccccc32)c1,-10.5%
8,CCOC(=O)c1ccc(NC(=O)c2cc(S(=O)(=O)N3CCOCC3)ccc2O)cc1,-10.3%
9,CCOC(=O)N1CCC(Nc2c(NCCCN(C)Cc3ccccc3)c(=O)c2=O)CC1,8.68%
10,Cc1cc(C)c2c(-c3ccc(F)cc3)c(C#N)c(=O)n(C)c2n1,11.3%
11,Cc1ccc(OCc2n[nH]c(=S)n2-c2ccc(Br)cc2)cc1,21.1%
12,COc1ccc(/C=C(/NC(=O)c2ccccc2)C(=O)NC(Cc2c[nH]c3ccccc23)C(=O)O)cc1 (stereo not shown),14.5%
13,CS(=O)(=O)N1CCCC(C(=O)Nc2ccc(Br)cc2F)C1 (stereo not shown),4.46%
14,N#Cc1cccc(NC(=O)COC(=O)Cn2nc(-c3ccccc3)oc2=O)c1,0.738%
15,COC(=O)C1=C(C(=O)OC)[C@@H]2N(C)c3ccccc3[C@@]23C[C@@H](C(=O)OC)N=C3N1,-2.81%
16,COc1cc(-c2cc(C(=O)Nc3ccc(O)cc3)c3ccccc3n2)cc(OC)c1OC,-25.8%
17,CCCC(C)C(=O)Nc1ccc(F)c(Cl)c1 (stereo not shown),-11.3%
18,COc1ccnc(NCc2cccc(C(F)(F)F)c2)c1C#N,3.7%
19,COc1cc(NC(=O)CSc2nnc(Cn3nnc4ccccc43)n2C)cc(OC)c1,-8.71%
20,O=C(CNS(=O)(=O)c1ccccc1)Nc1ccc(F)cc1F,7.81%
21,COc1ccc(CC(=O)OCc2nnc(C3COc4ccccc4O3)o2)cc1OC (stereo not shown),3.23%
